# Source: the supplement of paper PMC8728848
# The list shows a part of the results.
# What was measured:
# Test in all cases: glycan array binding signal (z-score within array); higher = stronger binding
# Conditions in all cases: glycan notation: IUPAC condensed, linker removed
# [1] = molecular target: Gal(a1-3)[Gal(a1-4)]Gal(b1-4)GlcNAc
# How it was run: (§1)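 Arrays were curated from the Consortium for Functional Glycomics database, 3228 in total, and kept only where the protein sequence was available. Binding is expressed as a within-array Z-score. This score was averaged across arrays of the same protein sequence at different concentrations or buffers and across linkers, and negative values can be read as non-binding.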
# [2] = molecular target: Gal(a1-4)Gal(b1-3)GlcNAc(b1-2)Man(a1-3)[Gal(a1-4)Gal(b1-3)GlcNAc(b1-2)Man(a1-6)]Man(b1-4)GlcNAc(b1-4)GlcNAc
# How it was run: as §1
# Gal(a1-4)Gal(b1-4)Glc = molecular target: Gal(a1-4)Gal(b1-4)Glc
# How it was run: as §1
# Gal(a1-4)Gal(b1-4)GlcNAc = molecular target: Gal(a1-4)Gal(b1-4)GlcNAc
# How it was run: as §1
# [3] = molecular target: Gal(a1-4)Gal(b1-4)GlcNAc(b1-2)Man(a1-3)[Gal(a1-4)Gal(b1-4)GlcNAc(b1-2)Man(a1-6)]Man(b1-4)GlcNAc(b1-4)GlcNAc
# How it was run: as §1
# [4] = molecular target: Gal(a1-4)Gal(b1-4)GlcNAc(b1-3)Gal(b1-4)Glc
# How it was run: as §1
# Gal(a1-4)GlcNAc = molecular target: Gal(a1-4)GlcNAc
# How it was run: as §1
# Gal(a1-6)Glc = molecular target: Gal(a1-6)Glc
# How it was run: as §1
# Gal(b1-2)Gal = molecular target: Gal(b1-2)Gal
# How it was run: as §1
# Gal(b1-3)Gal = molecular target: Gal(b1-3)Gal
# How it was run: as §1
# Gal(b1-3)Gal(b1-4)GlcNAc = molecular target: Gal(b1-3)Gal(b1-4)GlcNAc
# How it was run: as §1
# Gal(b1-3)GalNAc = molecular target: Gal(b1-3)GalNAc
# How it was run: as §1
# [5] = molecular target: Gal(b1-3)GalNAc(a1-3)[Fuc(a1-2)]Gal(b1-4)Glc
# How it was run: as §1
# [6] = molecular target: Gal(b1-3)GalNAc(a1-3)[Fuc(a1-2)]Gal(b1-4)GlcNAc
# How it was run: as §1
# Gal(b1-3)GalNAc(b1-3)Gal = molecular target: Gal(b1-3)GalNAc(b1-3)Gal
# How it was run: as §1
# [7] = molecular target: Gal(b1-3)GalNAc(b1-3)Gal(a1-4)Gal(b1-4)Glc
# How it was run: as §1
# [8] = molecular target: Gal(b1-3)GalNAc(b1-4)Gal(b1-4)Glc
# How it was run: as §1
# [9] = molecular target: Gal(b1-3)GalNAc(b1-4)[Neu5Ac(a2-3)]Gal(b1-4)Glc
# How it was run: as §1
# Gal(b1-3)GlcNAc = molecular target: Gal(b1-3)GlcNAc
# How it was run: as §1
# [10] = molecular target: Gal(b1-3)GlcNAc(a1-3)Gal(b1-4)GlcNAc
# How it was run: as §1
# [11] = molecular target: Gal(b1-3)GlcNAc(a1-6)Gal(b1-4)GlcNAc
# How it was run: as §1
# Gal(b1-3)GlcNAc(b1-2)Man = molecular target: Gal(b1-3)GlcNAc(b1-2)Man
# How it was run: as §1
# [12] = molecular target: Gal(b1-3)GlcNAc(b1-2)Man(a1-3)[Gal(b1-3)GlcNAc(b1-2)Man(a1-6)]Man(b1-4)GlcNAc(b1-4)GlcNAc
# How it was run: as §1
# [13] = molecular target: Gal(b1-3)GlcNAc(b1-2)Man(a1-3)[Gal(b1-3)GlcNAc(b1-2)Man(a1-6)]Man(b1-4)GlcNAc(b1-4)[Fuc(a1-6)]GlcNAc
# How it was run: as §1
# [14] = molecular target: Gal(b1-3)GlcNAc(b1-2)Man(a1-3)[GlcNAc(b1-4)][Gal(b1-3)GlcNAc(b1-2)Man(a1-6)]Man(b1-4)GlcNAc(b1-4)GlcNAc
# How it was run: as §1
# [15] = molecular target: Gal(b1-3)GlcNAc(b1-2)[Gal(b1-3)GlcNAc(b1-6)]Man(a1-6)[Gal(b1-3)GlcNAc(b1-2)Man(a1-3)]Man(b1-4)GlcNAc(b1-4)GlcNAc
# How it was run: as §1
# [16] = molecular target: Gal(b1-3)GlcNAc(b1-3)Gal(b1-3)GlcNAc
# How it was run: as §1
# [17] = molecular target: Gal(b1-3)GlcNAc(b1-3)Gal(b1-4)Glc
# How it was run: as §1
# [18] = molecular target: Gal(b1-3)GlcNAc(b1-3)Gal(b1-4)GlcNAc
# How it was run: as §1
# [19] = molecular target: Gal(b1-3)GlcNAc(b1-3)Gal(b1-4)GlcNAc(b1-2)Man(a1-3)[Gal(b1-3)GlcNAc(b1-3)Gal(b1-4)GlcNAc(b1-2)Man(a1-6)]Man(b1-4)GlcNAc(b1-4)GlcNAc
# How it was run: as §1
# [20] = molecular target: Gal(b1-3)GlcNAc(b1-3)Gal(b1-4)GlcNAc(b1-2)[Gal(b1-3)GlcNAc(b1-3)Gal(b1-4)GlcNAc(b1-6)]Man(a1-6)[Gal(b1-3)GlcNAc(b1-3)Gal(b1-4)GlcNAc(b1-2)Man(a1-3)]Man(b1-4)GlcNAc(b1-4)[Fuc(a1-6)]GlcNAc
# How it was run: as §1
# [21] = molecular target: Gal(b1-3)GlcNAc(b1-3)Gal(b1-4)GlcNAc(b1-3)Gal(b1-4)GlcNAc(b1-2)[Gal(b1-3)GlcNAc(b1-3)Gal(b1-4)GlcNAc(b1-3)Gal(b1-4)GlcNAc(b1-6)]Man(a1-6)[Gal(b1-3)GlcNAc(b1-3)Gal(b1-4)GlcNAc(b1-3)Gal(b1-4)GlcNAc(b1-2)Man(a1-3)]Man(b1-4)GlcNAc(b1-4)[Fuc(a1-6)]GlcNAc
# How it was run: as §1
# [22] = molecular target: Gal(b1-3)GlcNAc(b1-3)Gal(b1-4)GlcNAc(b1-6)[Gal(b1-3)GlcNAc(b1-3)]Gal(b1-4)Glc
# How it was run: as §1
# [23] = molecular target: Gal(b1-3)GlcNAc(b1-3)Gal(b1-4)[Fuc(a1-3)]GlcNAc
# How it was run: as §1
# [24] = molecular target: Gal(b1-3)GlcNAc(b1-3)Gal(b1-4)[Fuc(a1-3)]GlcNAc(b1-6)[Gal(b1-3)GlcNAc(b1-3)]Gal(b1-4)Glc
# How it was run: as §1
# [25] = molecular target: Gal(b1-3)GlcNAc(b1-3)GalNAc
# How it was run: as §1
# [26] = molecular target: Gal(b1-3)GlcNAc(b1-6)Gal(b1-4)GlcNAc
# How it was run: as §1
# [27] = molecular target: Gal(b1-3)GlcNAc(b1-6)GalNAc
# How it was run: as §1
binder,measurement,setting,value
Si Bti9 1b-V5-his (Solanum lycopersicum) (protein) MQCNRGCDLALASFYVWRGSNLTLISEMFSTSIADIVSYNNRDNIPNQDSVIAGTRINIPFRCDCLNDGEVLGHAFPYRVKSGDTYDLVARNYSDLTTAQWMMKFNSYPENNIPNTVNLSVVVNCSCGNSDVSKDFGLFVTYPVRAEDNLTSVASAANVSEDIIRRYNPAAVSILDIGQGIIYIPGRDRNGNFPPLPTSTDGLSGGAKKGGRADPAFLYKVVINSKLEGKPIPNPLLGLDSTRTGHHHHHH,glycan array binding signal (z-score),[1],2.94
same,glycan array binding signal (z-score),[2],-0.153
same,glycan array binding signal (z-score),Gal(a1-4)Gal(b1-4)Glc,-0.25
same,glycan array binding signal (z-score),Gal(a1-4)Gal(b1-4)GlcNAc,-0.015
same,glycan array binding signal (z-score),[3],-0.224
same,glycan array binding signal (z-score),[4],-0.307
same,glycan array binding signal (z-score),Gal(a1-4)GlcNAc,-0.203
same,glycan array binding signal (z-score),Gal(a1-6)Glc,-0.212
same,glycan array binding signal (z-score),Gal(b1-2)Gal,0.494
same,glycan array binding signal (z-score),Gal(b1-3)Gal,-0.313
same,glycan array binding signal (z-score),Gal(b1-3)Gal(b1-4)GlcNAc,-0.219
same,glycan array binding signal (z-score),Gal(b1-3)GalNAc,-0.244
same,glycan array binding signal (z-score),[5],0.075
same,glycan array binding signal (z-score),[6],-0.253
same,glycan array binding signal (z-score),Gal(b1-3)GalNAc(b1-3)Gal,-0.268
same,glycan array binding signal (z-score),[7],0.081
same,glycan array binding signal (z-score),[8],0.054
same,glycan array binding signal (z-score),[9],-0.386
same,glycan array binding signal (z-score),Gal(b1-3)GlcNAc,-0.084
same,glycan array binding signal (z-score),[10],-0.269
same,glycan array binding signal (z-score),[11],-0.373
same,glycan array binding signal (z-score),Gal(b1-3)GlcNAc(b1-2)Man,-0.032
same,glycan array binding signal (z-score),[12],0.127
same,glycan array binding signal (z-score),[13],-0.076
same,glycan array binding signal (z-score),[14],-0.22
same,glycan array binding signal (z-score),[15],-0.044
same,glycan array binding signal (z-score),[16],0.11
same,glycan array binding signal (z-score),[17],-0.453
same,glycan array binding signal (z-score),[18],-0.319
same,glycan array binding signal (z-score),[19],-0.029
same,glycan array binding signal (z-score),[20],0.036
same,glycan array binding signal (z-score),[21],0.192
same,glycan array binding signal (z-score),[22],-0.125
same,glycan array binding signal (z-score),[23],-0.216
same,glycan array binding signal (z-score),[24],-0.392
same,glycan array binding signal (z-score),[25],0.141
same,glycan array binding signal (z-score),[26],-0.302
same,glycan array binding signal (z-score),[27],-0.237
